Assay results from US10299477B2 (priority 2015, dated 2019).

How the values were obtained:
Type in all cases: in vivo
[1] = test system: Botrytis cinerea; test: Test Example B: Gray mold on tomato; conditions: in vivo
Description: [Test Example B] Gray Mold on Tomato
Seeds of a test plant (tomato variety: Oogata Fukuju) were planted followed by cultivating until three to five first leaves (true leaves) appeared.

[2] = test system: Blumeria graminis f sp. hordei; test: Test Example D: Powdery mildew on barley; conditions: in vivo
Description: [Test Example D] Powdery Mildew on Barley
After the sprayed dilutions were dried, conidia of Blumeria graminis f sp. hordei were inoculated to the plants by shaking off.

[3] = test system: Plasmopara viticola; test: Test Example G: Downy mildew on vine; conditions: 250 ppm, sprayed 2.5 ml/pot before inoculation; evaluated 7-10 days after inoculation
Description: [Test Example G] Downy Mildew on Vine
Seeds of a test plant (grape variety: Neomuscat) were planted followed by cultivating until three to four first leaves appeared. […] After the sprayed dilutions were dried, a zoosporangia suspension (1-2×10^4 zoosporangia/ml) of Plasmopara viticola was inoculated to the plants by spraying.

[4] = test system: Alternaia brassicicola; test: Test Example C: Alternaria sooty spot on cabbage; conditions: in vivo
Description: [Test Example C] Alternaria Sooty Spot on Cabbage
Seeds of a test plant (cabbage variety: Shikidori) were planted followed by cultivating until the cotyledons extended.

[5] = test system: Puccinia recondita; test: Test Example E: Brown rust on wheat; conditions: in vivo
Description: [Test Example E] Brown Rust on Wheat

Row | Structure (SMILES) | Test B (control value class, gray mold on tomato) [1] | Test D (control value class, powdery mildew on barley) [2] | Test G (control value class, downy mildew on vine) [3] | Test C (control value class, Alternaria sooty spot on cabbage) [4] | Test E (control value class, brown rust on wheat) [5]
1 | CCn1c(-c2c(F)cc(C)cc2F)c(-c2cc(F)ccc2Cl)ccc1=O [Compound 707] | H (H shows more than 50% of control values) | L (L shows 50% or less of control values) | L (L shows 50% or less of control values) | L (L shows 50% or less of control values) | H (H shows more than 50% of control values)
2 | CCn1c(-c2c(F)cc(C)cc2F)c(-c2cc(F)ccc2Cl)cc(Cl)c1=O [Compound 708] | L (L shows 50% or less of control values) | L (L shows 50% or less of control values) | L (L shows 50% or less of control values) | L (L shows 50% or less of control values) | H (H shows more than 50% of control values)
3 | CCn1c(-c2c(F)cc(C)cc2F)c(-c2cc(F)ccc2Cl)cc(C)c1=O [Compound 710] | H (H shows more than 50% of control values) | H (H shows more than 50% of control values) | L (L shows 50% or less of control values) | H (H shows more than 50% of control values) | H (H shows more than 50% of control values)
4 | CCn1c(-c2c(F)cc(OC)cc2F)c(-c2cccc(F)c2C)cc(Br)c1=O [Compound 711] | H (H shows more than 50% of control values) | H (H shows more than 50% of control values) | H (H shows more than 50% of control values) | H (H shows more than 50% of control values) | H (H shows more than 50% of control values)
5 | CCOc1cc(F)c(-c2c(-c3cccc(F)c3C)cc(Br)c(=O)n2CC)c(F)c1 [Compound 712] | H (H shows more than 50% of control values) | H (H shows more than 50% of control values) | H (H shows more than 50% of control values) | H (H shows more than 50% of control values) | H (H shows more than 50% of control values)
6 | CCOc1cc(F)c(-c2c(-c3cccc(F)c3C)cc(C)c(=O)n2CC)c(F)c1 [Compound 713] | H (H shows more than 50% of control values) | H (H shows more than 50% of control values) | H (H shows more than 50% of control values) | H (H shows more than 50% of control values) | H (H shows more than 50% of control values)
7 | CCn1c(-c2c(F)cc(OC)cc2F)c(-c2cc(F)cc(F)c2Cl)cc(C)c1=O [Compound 714] | H (H shows more than 50% of control values) | H (H shows more than 50% of control values) | H (H shows more than 50% of control values) | H (H shows more than 50% of control values) | H (H shows more than 50% of control values)
8 | CCn1c(-c2c(F)cc(F)cc2F)c(-c2ccccc2Cl)ccc1=O [Compound 715] | H (H shows more than 50% of control values) | H (H shows more than 50% of control values) | H (H shows more than 50% of control values) | H (H shows more than 50% of control values) | H (H shows more than 50% of control values)
9 | CCn1c(-c2c(F)cc(OC)cc2F)c(-c2cc(OC)cc(OC)c2Cl)ccc1=O [Compound 716] | H (H shows more than 50% of control values) | H (H shows more than 50% of control values) | H (H shows more than 50% of control values) | H (H shows more than 50% of control values) | H (H shows more than 50% of control values)
10 | COc1cc(F)c(-c2c(-c3cc(F)cc(F)c3Cl)cc(Br)c(=O)n2C)c(F)c1 [Compound 717] | H (H shows more than 50% of control values) | H (H shows more than 50% of control values) | H (H shows more than 50% of control values) | H (H shows more than 50% of control values) | H (H shows more than 50% of control values)
11 | COc1ccc(Cl)c(-c2ccc(=O)n(C#N)c2-c2c(F)cccc2F)c1 [Compound 719] | H (H shows more than 50% of control values) | H (H shows more than 50% of control values) | H (H shows more than 50% of control values) | H (H shows more than 50% of control values) | H (H shows more than 50% of control values)
12 | Cn1c(-c2c(F)cc(F)cc2F)c(-c2ccccc2Cl)cc(Br)c1=O [Compound 720] | H (H shows more than 50% of control values) | H (H shows more than 50% of control values) | H (H shows more than 50% of control values) | H (H shows more than 50% of control values) | H (H shows more than 50% of control values)
13 | COc1cc(F)c(-c2c(-c3cc(OC)ccc3Cl)ccc(=O)n2C)c(F)c1 [Compound 721] | H (H shows more than 50% of control values) | H (H shows more than 50% of control values) | L (L shows 50% or less of control values) | H (H shows more than 50% of control values) | H (H shows more than 50% of control values)
14 | COc1cc(F)c(-c2c(-c3cc(OC)ccc3Cl)cc(Cl)c(=O)n2C)c(F)c1 [Compound 722] | H (H shows more than 50% of control values) | H (H shows more than 50% of control values) | H (H shows more than 50% of control values) | H (H shows more than 50% of control values) | H (H shows more than 50% of control values)
15 | COc1cc(F)c(-c2c(-c3cc(OC)ccc3Cl)cc(Br)c(=O)n2C)c(F)c1 [Compound 723] | H (H shows more than 50% of control values) | H (H shows more than 50% of control values) | H (H shows more than 50% of control values) | H (H shows more than 50% of control values) | H (H shows more than 50% of control values)
16 | COc1cc(F)c(-c2c(-c3cc(OC)ccc3Cl)cc(C)c(=O)n2C)c(F)c1 [Compound 724] | H (H shows more than 50% of control values) | L (L shows 50% or less of control values) | L (L shows 50% or less of control values) | H (H shows more than 50% of control values) | H (H shows more than 50% of control values)
17 | COc1ccc(Cl)c(-c2cc(Br)c(=O)n(C)c2-c2c(F)cc(F)cc2F)c1 [Compound 725] | H (H shows more than 50% of control values) | H (H shows more than 50% of control values) | L (L shows 50% or less of control values) | H (H shows more than 50% of control values) | H (H shows more than 50% of control values)
18 | COc1ccc(Cl)c(-c2cc(C)c(=O)n(C)c2-c2c(F)cc(F)cc2F)c1 [Compound 726] | H (H shows more than 50% of control values) | H (H shows more than 50% of control values) | L (L shows 50% or less of control values) | H (H shows more than 50% of control values) | H (H shows more than 50% of control values)
19 | CCn1c(-c2c(F)cc(OCC(F)(F)F)cc2F)c(-c2cccc(F)c2Cl)cc(Cl)c1=O [Compound 727] | H (H shows more than 50% of control values) | H (H shows more than 50% of control values) | L (L shows 50% or less of control values) | H (H shows more than 50% of control values) | L (L shows 50% or less of control values)
